The test system of experiment [1] is SK-OV-3 xenograft (ovarian cancer). The experiment in a line: Xenograft anti-tumor efficacy. Format: in vivo, mice. The settings on record: based on measurement of tumor area (*). As to the method: (§1) Tumor cell lines were cultivated as described in the parts above and 100 μl containing cell line specific numbers of tumor cells inoculated subcutaneously (s.c.) into female athymic nude mice (NMRI nu/nu, 6-8 weeks, 20-25 g, Taconic). Mice were housed under standardized pathogen free conditions and treated according to the animal welfare guidelines.
(§2) After tumor growth to a size of approximately 40 mm^2 mice were randomized into control and treatment groups with a respective group size of n=8-10. Mice were treated with various doses of anti-TWEAKR antibodies diluted in PBS by intravenous injection (i.v.) into the tail vein with a twice per week schedule (q4dx3: applications twice per week, three applications in total; q4dx8: applications twice per week, eight applications in total). Combination therapy partners such as Regorafenib (10 mg/kg daily, per os) and the PI3K-inhibitor 1 (10 mg/kg, BID, 2d on, 5d off (applications twice daily on two consecutive days, followed by five days without treatment), i.v.) were diluted in their respective formulations whereas the standard of care therapies Irinotecan (5 mg/kg, 4d on, 3d off (applications once daily on four consecutive days followed by three days without treatment) i.v.) and Paclitaxel (16 mg/kg, q7dx4 (applications once per week, four applications in total), i.v.) were diluted in 0.9% NaCl. Animals injected with PBS served as the control (vehicle) group. The applied volume of the compounds was 5 ml/kg body weight per mouse.
(§3) Tumor growth was monitored 2-3 times per week by caliper measurement (length×width in mm) as well as body weight (in g). At the end of study tumors were dissected, weighted and used for the calculation of tumor-to-control (T/C) ratios (mean tumor weight of treated animals divided by mean tumor weight of control/vehicle animals). […] 2×10^6 tumor cells in 100% Matrigel were s.c. inoculated in female nude mice. After 7d established tumors with a size of about 40 mm^2 were treated with 0.3 mg/kg, 1 mg/kg and 3 mg/kg of antibodies (i.v., q4dx3: applications twice per week, three applications in total).

Experiment [2] deals with MDA-MB-231 xenograft (breast cancer). The experiment in a line: Xenograft anti-tumor efficacy. The format is in vivo, mice. Conditions: based on final tumor weight after dissection. On the procedure: as §1, §2, §3
The test system of experiment [3] is A253 xenograft (salivary gland cancer). Nature of the experiment: Xenograft anti-tumor efficacy. Conditions: based on measurement of tumor area (*). The format is in vivo, mice. As to the method: as §1, §2, §3
Experiment [4] concerns 786-O xenograft (renal cell cancer). The experiment in a line: Xenograft anti-tumor efficacy. The format is in vivo, mice. The settings on record: based on measurement of tumor area (*). On the procedure: as §1, §2, §3
Experiment [5] has as its system MDA-MB-453 cells. Nature of the experiment: FACS binding to cell surface. Set-up: species or system human. The settings on record: MDA-MB-453, BreastCA; 10 μg/ml. On the procedure:
(§4) To determine the binding characteristics of the anti-TWEAKR antibodies on mouse and human cancer cell lines, binding was tested by flow cytometry to a panel of cell lines. Adherent cells were washed twice with PBS without Ca and Mg (Biochrom #L1825: aqueous solution containing 8000 mg/l NaCl, 200 mg/l KCl, 1150 mg/l Na2HPO4, and 200 mg/l KH2PO4) and detached by enzyme-free PBS based cell dissociation buffer (Invitrogen). Cells were suspended at approximately 10^5 cells/well in FACS buffer (PBS without Ca/Mg, containing 3% FCS, Biochrom). Cells were centrifuged (250 g, 5 min, 4° C.) and supernatant discarded. Cells were resuspended in dilutions of the antibodies of interest (10 μg/ml in 80 μl if not indicated otherwise) in FACS buffer, and incubated on ice for 1 h. In the following cells were washed once with 1000 cold FACS buffer and 80 μl secondary antibody diluted at 1:150 (PE goat anti-human IgG, Dianova #109-115-098, or PE Goat Anti-Mouse IgG, Jackson Immuno Research #115-115-164) was added. After incubation for 1 h on ice cells were again washed with cold FACS buffer, resuspended in 1000 FACS buffer and analyzed by flow cytometry using a FACS-Array (BD Biosciences). Results are calculated as Geo Mean of fluorescence detected by the antibody of interest subtracted by background fluorescence as measured by detection with the secondary antibody alone. Values are scored according to the following system: Geo Mean−Geo Mean of secondary antibody alone >10: +, >100: ++, >1000: +++, 10000: ++++, close to category border in ( ).

For experiment [6], the system named is Fadu cells. Nature of the experiment: FACS binding to cell surface. More on the design: species or system human. Conditions: HNSCC, 10 μg/ml. As to the method:
as §4

For experiment [7], the system named is EKVX cells. Nature of the experiment: FACS binding to cell surface. Set-up: species or system human. The settings on record: NSCLC, 10 μg/ml. As to the method:
as §4

For experiment [8], the system named is Calu-6 cells. Nature of the experiment: FACS binding to cell surface. More on the design: species or system human. Conditions: Calu-6, NSCLC; 10 μg/ml. On the procedure: as §4
The subject of experiment [9] is SW-480 cells. Nature of the experiment: FACS binding to cell surface. More on the design: species or system human. The settings on record: SW-480, CRC; 10 μg/ml. On the procedure: as §4
The subject of experiment [10] is SCC4 cells. Nature of the experiment: FACS binding to cell surface. Set-up: species or system human. Conditions: SCC4, HNSCC; 10 μg/ml. On the procedure:
as §4

Experiment [11] has as its system NCI-H460 cells. Nature of the experiment: FACS binding to cell surface. More on the design: species or system human. Conditions: NCI-H460, NSCLC; 10 μg/ml. On the procedure: as §4
Experiment [12] relates to A549 cells. Nature of the experiment: FACS binding to cell surface. Set-up: species or system human. Conditions: A549, NSCLC; 10 μg/ml. As to the method:
as §4

The test system of experiment [13] is MiaPaca2 cells. The experiment in a line: FACS binding to cell surface. More on the design: species or system human. The settings on record: MiaPaca2, PancCA; 10 μg/ml. As to the method:
as §4

Experiment [14] concerns Scaber cells. The experiment in a line: FACS binding to cell surface. Set-up: species or system human. The settings on record: Bladder CA, 10 μg/ml. On the procedure:
as §4

For experiment [15], the system named is Lewis Lung cells. Nature of the experiment: FACS binding to cell surface. The settings on record: murine CA cell line, 10 μg/ml. On the procedure:
as §4, with “In the following cells were washed once with 1000 cold FACS buffer and 80 μl secondary antibody diluted at 1:150 (PE goat anti-human IgG, Dianova #109-115-098, or PE Goat Anti-Mouse IgG, Jackson Immuno Research #115-115-164) was added.” left out

Marks after values point to notes of the source that are not given here.

B1: TPP-1538: anti-TWEAKR human IgG1; heavy chain SEQ ID NO: 62, light chain SEQ ID NO: 61 (antibody, listed as Homo Sapiens)
heavy: EVQLLESGGGLVQPGGSLRLSCAASGFTFSPYPMMWVRQAPGKGLEWVSYISPSGGKTHYADSVKGRFTISRDNSKNTLYLQMNSLRAEDTAVYYCARGGDTYFDYFDYWGQGTLVTVSS[human IgG1 constant region not shown]
light: AQDIQMTQSPATLSASVGDRVTITCRASQSISSYLNWYQQKPGKAPKLLIYAASSLQSGVPSRFSGSGSGTDFTLTISSLQPEDFATYYCQQSYSSPGITFGPGTKVEIKRTVAAPSVFIFPPSDEQLKSGTASVVCLLNNFYPREAKVQWKVDNALQSGNSQESVTEQDSKDSTYSLSSTLTLSKADYEKHKLYACEVTHQGLSSPVTKSFNRGEC
With B1, the “Final T/C” value in experiment [1] is recorded as 0.55*; in experiment [2], 0.91; in [3] it was 0.43*; in experiment [4], 0.57*. Further, the “Binding by scoring of FACS analysis” value in experiment [5] is given as “+ (>10: +)”; in [6], “++ (>100: ++)”; in [7], “++ (>100: ++)”; in [8], “++ (>100: ++)”; in [9], “++ (>100: ++)”; in [10], “+++ (>1000: +++)”. Besides, the “Binding by scoring of FACS analysis” value in experiment [11] is listed as “++ (>100: ++)”; in experiment [12], “++ (>100: ++)”; in experiment [13], “+ (>10: +)”; in experiment [14], “++ (>100: ++)”; in experiment [15], “+ (>10: +)”.

For the origin of these results see US20160237160A1, “ANTI-TWEAKR ANTIBODIES AND USES THEREOF” (BAYER PHARMA AKTIENGESELLSCHAFT, priority 2013, published 2016).
